Blank lines part the entries; values can stand above or below the binder they belong to.
What was measured:
[1] = target: T1, IL-2v-Fc (Fc2) with PTCWT CH3 domain sequence, of the Fab-Fc × cytokine-Fc hetero-bispecific antibody (Homo sapiens (Human), UniProt P0DOX5 part only = IgG part); assay: non-reducing SDS-PAGE, Fab-Fc × cytokine-Fc hetero-bispecific antibody
T1 construct: also called cytokine-Fc Fc2, PTCWT

[2] = target: T2, Fc2 of PTCWT (wild-type IgG1 Fc chain) (Homo sapiens (Human), UniProt P0DOX5 part only = IgG part); assay: CE-SDS of Protein A-purified co-expression
T2 construct: Fc chain only (hinge-CH2-CH3); also called Fc chain of Fc2 of PTCWT; Fc2 of PTC031

[3] = target: T2, Fc2 of PTCWT (wild-type IgG1 Fc chain); assay: SE-HPLC of Protein A-purified co-expression
[4] = target: T3, scFv-scFv-Fc (Fc2) with PTCWT CH3 domain sequence, of the Fab-Fc × scFv-scFv-Fc hetero-bispecific antibody (Homo sapiens (Human), UniProt P0DOX5 part only = IgG part); assay: non-reducing SDS-PAGE, Fab-Fc × scFv-scFv-Fc hetero-bispecific antibody
T3 construct: also called double scFv-Fc Fc2, PTCWT

[5] = target: T4, IL-2v-Fc (Fc2) with PTC111 CH3 domain sequence, of the Fab-Fc × cytokine-Fc hetero-bispecific antibody (Homo sapiens (Human), UniProt P0DOX5 part only = IgG part); assay: non-reducing SDS-PAGE, Fab-Fc × cytokine-Fc hetero-bispecific antibody
T4 construct: also called cytokine-Fc Fc2, PTC111

[6] = target: T5, IL-2v-Fc (Fc2) with PTC019 CH3 domain sequence, of the Fab-Fc × cytokine-Fc hetero-bispecific antibody (Homo sapiens (Human), UniProt P0DOX5 part only = IgG part); assay: as above
T5 construct: also called cytokine-Fc Fc2, PTC019

[7] = target: T6, IL-2v-Fc (Fc2) with PTC074 CH3 domain sequence, of the Fab-Fc × cytokine-Fc hetero-bispecific antibody (Homo sapiens (Human), UniProt P0DOX5 part only = IgG part); assay: as above
T6 construct: also called cytokine-Fc Fc2, PTC074

[8] = target: T7, Fc2 of PTC019 (IgG1 Fc chain with T366S, L368A, Y407V) (Homo sapiens (Human), UniProt P0DOX5 part only = IgG part); assay: CE-SDS of Protein A-purified co-expression
T7 construct: Fc chain only; also called Fc2 of PTC032; Fc2 of PTC033

[9] = target: T8, Fc2 of PTC111 (IgG1 Fc chain with L351F, T366S, L368A, Y407V) (Homo sapiens (Human), UniProt P0DOX5 part only = IgG part); assay: CE-SDS of Protein A-purified co-expression
T8 construct: Fc chain only; also called Fc2 of PTC113; Fc2 of PTC115

[10] = target: T7, Fc2 of PTC019 (IgG1 Fc chain with …); assay: SE-HPLC of Protein A-purified co-expression
[11] = target: T8, Fc2 of PTC111 (IgG1 Fc chain with …); assay: SE-HPLC of Protein A-purified co-expression
[12] = target: T9, scFv-scFv-Fc (Fc2) with PTC019 CH3 domain sequence, of the Fab-Fc × scFv-scFv-Fc hetero-bispecific antibody (Homo sapiens (Human), UniProt P0DOX5 part only = IgG part); assay: non-reducing SDS-PAGE, Fab-Fc × scFv-scFv-Fc hetero-bispecific antibody
T9 construct: also called double scFv-Fc Fc2, PTC019

[13] = target: T10, scFv-scFv-Fc (Fc2) with PTC074 CH3 domain sequence, of the Fab-Fc × scFv-scFv-Fc hetero-bispecific antibody (Homo sapiens (Human), UniProt P0DOX5 part only = IgG part); assay: as above
T10 construct: also called double scFv-Fc Fc2, PTC074

[14] = target: the molecule itself; assay: non-reducing SDS-PAGE (FIG. 4), PTC088, PTC089 and PTC090 co-expressions

Fc1-2 hetero-dimer (%) [1]: 40.6% | Fc1-2 hetero-dimer (%) [2]: 40.1% | Fc1-2 hetero-dimer (%) [3]: 42.2% | Fc1-2 hetero-dimer (%) [4]: 42%
B1: Fc1 of PTCWT (avelumab heavy chain with wild-type IgG1 CH3, plus avelumab light chain) (other)
heavy: EVQLLESGGGLVQPGGSLRLSCAASGFTFSSYIMMWVRQAPGKGLEWVSSIYPSGGITFYADTVKGRFTISRDNSKNTLYLQMNSLRAEDTAVYYCARIKLGTVTTVDYWGQGTLVTVSS[not shown - human IgG1 constant region]
light: QSALTQPASVSGSPGQSITISCTGTSSDVGGYNYVSWYQQHPGKAPKLMIYDVSNRPSGVSNRFSGSKSGNTASLTISGLQAEDEADYYCSSYTSSSTRVFGTGTKVTVLGQPKANPTVTLFPPSSEELQANKATLVCLISDFYPGAVTVAWKADGSPVKAGVETTKPSKQSNNKYAASSYLSLTPEQWKSHRSYSCQVTHEGSTVEKTVAPTECS
notes: Half antibody: one heavy and one light chain; also called PTCWT Fc1; negative control group Fc1

Fc1-2 hetero-dimer (%) [5]: 89.9% | Fc1-2 hetero-dimer (%) [6]: 68.8% | Fc1-2 hetero-dimer (%) [7]: 90.4% | Fc1-2 hetero-dimer (%) [8]: 60.1% | Fc1-2 hetero-dimer (%) [9]: 84.8% | Fc1-2 hetero-dimer (%) [10]: 58.2% | Fc1-2 hetero-dimer (%) [11]: 91.6% | Fc1-2 hetero-dimer (%) [12]: 57.6% | Fc1-2 hetero-dimer (%) [13]: 70.2%
B2: Fc1 of PTC019 (avelumab heavy chain with T366W in CH3, plus avelumab light chain) (other)
heavy: EVQLLESGGGLVQPGGSLRLSCAASGFTFSSYIMMWVRQAPGKGLEWVSSIYPSGGITFYADTVKGRFTISRDNSKNTLYLQMNSLRAEDTAVYYCARIKLGTVTTVDYWGQGTLVTVSS[not shown - human IgG1 constant region with changes]
light: QSALTQPASVSGSPGQSITISCTGTSSDVGGYNYVSWYQQHPGKAPKLMIYDVSNRPSGVSNRFSGSKSGNTASLTISGLQAEDEADYYCSSYTSSSTRVFGTGTKVTVLGQPKANPTVTLFPPSSEELQANKATLVCLISDFYPGAVTVAWKADGSPVKAGVETTKPSKQSNNKYAASSYLSLTPEQWKSHRSYSCQVTHEGSTVEKTVAPTECS
notes: Half antibody: one heavy and one light chain; also called Fc1 of PTC074; Fc1 of PTC091

B3: Fc1 of PTC088 (avelumab heavy chain with L351G, T366S, L368A, Y407V, plus avelumab light chain) (other)
heavy: EVQLLESGGGLVQPGGSLRLSCAASGFTFSSYIMMWVRQAPGKGLEWVSSIYPSGGITFYADTVKGRFTISRDNSKNTLYLQMNSLRAEDTAVYYCARIKLGTVTTVDYWGQGTLVTVSSASTKGPSVFPLAPSSKSTSGGTAALGCLVKDYFPEPVTVSWNSGALTSGVHTFPAVLQSSGLYSLSSVVTVPSSSLGTQTYICNVNHKPSNTKVDKKV[not shown - human IgG1 Fc with L351G T366S L368A Y407V (EU numbers)]
light: QSALTQPASVSGSPGQSITISCTGTSSDVGGYNYVSWYQQHPGKAPKLMIYDVSNRPSGVSNRFSGSKSGNTASLTISGLQAEDEADYYCSSYTSSSTRVFGTGTKVTVLGQPKANPTVTLFPPSSEELQANKATLVCLISDFYPGAVTVAWKADGSPVKAGVETTKPSKQSNNKYAASSYLSLTPEQWKSHRSYSCQVTHEGSTVEKTVAPTECS
notes: Half antibody; Substitutions in EU numbering; also called Fc1 of PTC089; Fc1 of PTC090
binding result [14]: no binding
